From the supplement of paper PMC8728848
The other results are listed elsewhere or left out.

Assays:
Assay in all cases: glycan array binding signal (z-score within array); higher = stronger binding
Details in all cases: glycan notation: IUPAC condensed, linker removed
Gal(b1-2)Gal = biological target: Gal(b1-2)Gal
Procedure, shortened: (§1)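 The Consortium for Functional Glycomics database supplied 3228 glycan arrays, of which those lacking an available protein sequence were dropped. The binding signal, a within-array Z-score, was averaged across arrays of the same protein sequence and across linkers. Negative scores can be read as non-binding.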

Gal(b1-3)Gal = biological target: Gal(b1-3)Gal
Procedure, shortened: as §1

Gal(b1-3)Gal(b1-4)GlcNAc = biological target: Gal(b1-3)Gal(b1-4)GlcNAc
Procedure, shortened: as §1

Gal(b1-3)GalNAc = biological target: Gal(b1-3)GalNAc
Procedure, shortened: as §1

[1] = biological target: Gal(b1-3)GalNAc(b1-3)Gal(a1-4)Gal(b1-4)Glc
Procedure, shortened: as §1

[2] = biological target: Gal(b1-3)GalNAc(b1-4)Gal(b1-4)Glc
Procedure, shortened: as §1

[3] = biological target: Gal(b1-3)GalNAc(b1-4)[Neu5Ac(a2-3)]Gal(b1-4)Glc
Procedure, shortened: as §1

Gal(b1-3)GlcNAc = biological target: Gal(b1-3)GlcNAc
Procedure, shortened: as §1

[4] = biological target: Gal(b1-3)GlcNAc(b1-2)Man(a1-3)[Gal(b1-3)GlcNAc(b1-2)Man(a1-6)]Man(b1-4)GlcNAc(b1-4)GlcNAc
Procedure, shortened: as §1

[5] = biological target: Gal(b1-3)GlcNAc(b1-3)Gal(b1-3)GlcNAc
Procedure, shortened: as §1

[6] = biological target: Gal(b1-3)GlcNAc(b1-3)Gal(b1-4)Glc
Procedure, shortened: as §1

[7] = biological target: Gal(b1-3)GlcNAc(b1-3)Gal(b1-4)GlcNAc
Procedure, shortened: as §1

[8] = biological target: Gal(b1-3)[Fuc(a1-4)]GlcNAc
Procedure, shortened: as §1

[9] = biological target: Gal(b1-3)[Fuc(a1-4)]GlcNAc(b1-3)Gal(b1-3)[Fuc(a1-4)]GlcNAc
Procedure, shortened: as §1

[10] = biological target: Gal(b1-3)[Fuc(a1-4)]GlcNAc(b1-3)Gal(b1-4)GlcNAc
Procedure, shortened: as §1

[11] = biological target: Gal(b1-3)[Fuc(a1-4)]GlcNAc(b1-3)Gal(b1-4)[Fuc(a1-3)]GlcNAc
Procedure, shortened: as §1

[12] = biological target: Gal(b1-3)[GlcNAc(b1-6)]GalNAc
Procedure, shortened: as §1

[13] = biological target: Gal(b1-3)[Neu5Ac(a2-6)]GalNAc
Procedure, shortened: as §1

[14] = biological target: Gal(b1-3)[Neu5Ac(a2-6)]GlcNAc(b1-6)Gal(b1-4)Glc
Procedure, shortened: as §1

[15] = biological target: Gal(b1-3)[Neu5Ac(b2-6)]GalNAc
Procedure, shortened: as §1

[16] = biological target: Gal(b1-4)GalNAc(a1-3)[Fuc(a1-2)]Gal(b1-4)GlcNAc
Procedure, shortened: as §1

[17] = biological target: Gal(b1-4)GalNAc(b1-3)[Fuc(a1-2)]Gal(b1-4)GlcNAc
Procedure, shortened: as §1

Gal(b1-4)Glc = biological target: Gal(b1-4)Glc
Procedure, shortened: as §1

Gal(b1-4)Glc6S = biological target: Gal(b1-4)Glc6S
Procedure, shortened: as §1

Gal(b1-4)GlcNAc = biological target: Gal(b1-4)GlcNAc
Procedure, shortened: as §1

[18] = biological target: Gal(b1-4)GlcNAc(a1-6)Gal(b1-4)GlcNAc
Procedure, shortened: as §1

[19] = biological target: Gal(b1-4)GlcNAc(b1-2)Man(a1-3)[Gal(b1-4)GlcNAc(b1-2)Man(a1-6)]Man(b1-4)GlcNAc(b1-4)GlcNAc
Procedure, shortened: as §1

[20] = biological target: Gal(b1-4)GlcNAc(b1-3)Gal(b1-3)GlcNAc
Procedure, shortened: as §1

[21] = biological target: Gal(b1-4)GlcNAc(b1-3)Gal(b1-4)Glc
Procedure, shortened: as §1

[22] = biological target: Gal(b1-4)GlcNAc(b1-3)Gal(b1-4)GlcNAc
Procedure, shortened: as §1

B1: P-Selectin (Homo sapiens), P16109 (protein)
chain: MANCQIAILYQRFQRVVFGISQLLCFSALISELTNQKEVAAWTYHYSTKAYSWNISRKYCQNRYTDLVAIQNKNEIDYLNKVLPYYSSYYWIGIRKNNKTWTWVGTKKALTNEAENWADNEPNNKRNNEDCVEIYIKSPSAPGKWNDEHCLKKKHALCYTASCQDMSCSKQGECLETIGNYTCSCYPGFYGPECEYVRECGELELPQHVLMNCSHPLGNFSFNSQCSFHCTDGYQVNGPSKLECLASGIWTNKPPQCLAAQCPPLKIPERGNMTCLHSAKAFQHQSSCSFSCEEGFALVGPEVVQCTASGVWTAPAPVCKAVQCQHLEAPSEGTMDCVHPLTAFAYGSSCKFECQPGYRVRGLDMLRCIDSGHWSAPLPTCEAISCEPLESPVHGSMDCSPSLRAFQYDTNCSFRCAEGFMLRGADIVRCDNLGQWTAPAPVCQALQCQDLPVPNEARVNCSHPFGAFRYQSVCSFTCNEGLLLVGASVLQCLATGNWNSVPPECQAIPCTPLLSPQNGTMTCVQPLGSSSYKSTCQFICDEGYSLSGPERLDCTRSGRWTDSPPMCEAIKCPELFAPEQGSLDCSDTRGEFNVGSTCHFSCDNGFKLEGPNNVECTTSGRWSATPPTCKGIASLPTPGLQCPALTTPGQGTMYCRHHPGTFGFNTTCYFGCNAGFTLIGDSTLSCRPSGQWTAVTPACRAVKCSELHVNKPIAMNCSNLWGNFSYGSICSFHCLEGQLLNGSAQTACQENGHWSTTVPTCQAGPLTIQEASTSITAYKSEGESAEFSFPLNLGEESLQGELRWKAEKAPSSQSWITFSLKNQKVSVQKSTSNPKFQLSETLPLTLQIPQVSLQFAGSGNLTLTLDRGILYQEVNLVVMKVTQPDSNTLTCEVMGPTSPKMRLILKQENQEARVSRQEKVIQVQAPEAGVWQCLLSEGEEVKMDSKIQVLSKGLNSGGGSGGGTGGGDLAPQMLRELQETNAALQDVRELLRQQVKEITFLKNTVMECDACGLDRNLPPLAPLGPHPETLVKVKDAEDQLGARVGYIELDLNSGKILESFRPEERFPMMSTFKVLLCGAVLSRIDAGQEQLGRRIHYSQNDLVEYSPVTEKHLTDGMTVRELCSAAITMSDNTAANLLLTTIGGPKELTAFLHNMGDHVTRLDRWEPELNEAIPNDERDTTMPVAMATTLRKLLTGELLTLASRQQLIDWMEADKVAGPLLRSALPAGWFIADKSGAGERGSRGIIAALGPDGKPSRIVVIYTTGSQATMDERNRQIAEIGASLIKHWGPDYKDHDGDYKDHDIDYKDDDDKGPHHHHHH
glycan array binding signal (z-score) (Gal(b1-2)Gal): -0.24 | glycan array binding signal (z-score) (Gal(b1-3)Gal): -0.262 | glycan array binding signal (z-score) (Gal(b1-3)Gal(b1-4)GlcNAc): -0.454 | glycan array binding signal (z-score) (Gal(b1-3)GalNAc): -0.218 | glycan array binding signal (z-score) [1]: -0.313 | glycan array binding signal (z-score) [2]: -0.365 | glycan array binding signal (z-score) [3]: -0.268 | glycan array binding signal (z-score) (Gal(b1-3)GlcNAc): -0.289 | glycan array binding signal (z-score) [4]: 1.76 | glycan array binding signal (z-score) [5]: -0.386 | glycan array binding signal (z-score) [6]: -0.271 | glycan array binding signal (z-score) [7]: -0.367 | glycan array binding signal (z-score) [8]: -0.24 | glycan array binding signal (z-score) [9]: -0.189 | glycan array binding signal (z-score) [10]: -0.346 | glycan array binding signal (z-score) [11]: -0.175 | glycan array binding signal (z-score) [12]: -0.25 | glycan array binding signal (z-score) [13]: -0.404 | glycan array binding signal (z-score) [14]: -0.208 | glycan array binding signal (z-score) [15]: -0.425 | glycan array binding signal (z-score) [16]: 0.156 | glycan array binding signal (z-score) [17]: -0.401 | glycan array binding signal (z-score) (Gal(b1-4)Glc): -0.174 | glycan array binding signal (z-score) (Gal(b1-4)Glc6S): -0.055 | glycan array binding signal (z-score) (Gal(b1-4)GlcNAc): -0.374 | glycan array binding signal (z-score) [18]: -0.301 | glycan array binding signal (z-score) [19]: -0.162 | glycan array binding signal (z-score) [20]: -0.238 | glycan array binding signal (z-score) [21]: -0.219 | glycan array binding signal (z-score) [22]: -0.31
